Results reported in article PMC4336329 (PLoS ONE, 2015).
Hit rate of the full screen: of about 310,000 compounds, about 14,000 (4.5%) showed an effect of 50% or more. The effect is printed as a negative number. The list shows a part of the results.

Each molecule was assayed against human ether-à-go-go-related gene (hERG) potassium channel (human, UniProt Q12809) (assay: primary screen, population patch clamp on CHO cells stably expressing hERG).
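Also: peak tail current of the secondary pulse compared with the same well before compound.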

Sequence of human ether-à-go-go-related gene (hERG) potassium channel (Q12809 whole entry, looked up): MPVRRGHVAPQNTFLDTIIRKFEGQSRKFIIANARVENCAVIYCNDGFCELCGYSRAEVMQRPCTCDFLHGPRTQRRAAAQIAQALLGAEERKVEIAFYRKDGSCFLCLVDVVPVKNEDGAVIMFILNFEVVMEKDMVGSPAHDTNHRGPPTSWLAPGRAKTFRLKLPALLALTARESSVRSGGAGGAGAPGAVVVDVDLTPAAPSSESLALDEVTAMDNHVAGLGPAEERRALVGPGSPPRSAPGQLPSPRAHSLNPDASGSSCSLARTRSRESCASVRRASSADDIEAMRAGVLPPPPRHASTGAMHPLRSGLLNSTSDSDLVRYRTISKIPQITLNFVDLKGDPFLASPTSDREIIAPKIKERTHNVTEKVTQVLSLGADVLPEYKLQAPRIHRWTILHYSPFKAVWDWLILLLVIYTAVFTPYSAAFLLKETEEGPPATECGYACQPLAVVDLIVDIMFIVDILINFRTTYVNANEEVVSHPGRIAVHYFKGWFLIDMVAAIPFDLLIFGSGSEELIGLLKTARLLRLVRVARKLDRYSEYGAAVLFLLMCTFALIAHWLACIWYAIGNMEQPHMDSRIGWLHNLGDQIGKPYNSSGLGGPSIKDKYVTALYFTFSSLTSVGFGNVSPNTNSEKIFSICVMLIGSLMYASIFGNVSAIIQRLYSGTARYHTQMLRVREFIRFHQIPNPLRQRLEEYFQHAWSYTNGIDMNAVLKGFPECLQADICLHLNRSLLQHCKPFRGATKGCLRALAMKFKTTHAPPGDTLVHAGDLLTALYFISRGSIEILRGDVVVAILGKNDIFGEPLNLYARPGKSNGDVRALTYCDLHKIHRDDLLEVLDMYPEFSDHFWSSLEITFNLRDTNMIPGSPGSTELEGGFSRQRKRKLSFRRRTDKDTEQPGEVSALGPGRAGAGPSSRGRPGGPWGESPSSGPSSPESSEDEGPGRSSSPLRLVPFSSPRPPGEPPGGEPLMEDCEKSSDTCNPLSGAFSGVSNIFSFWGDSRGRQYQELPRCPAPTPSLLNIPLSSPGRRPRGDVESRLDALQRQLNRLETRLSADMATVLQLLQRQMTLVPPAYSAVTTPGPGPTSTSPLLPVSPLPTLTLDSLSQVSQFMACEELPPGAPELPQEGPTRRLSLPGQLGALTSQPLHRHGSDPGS

Row | Structure (SMILES) | hERG current change (%, negative = inhibition) at 10uM
1 | CCOC(=O)c1ccccc1NC(=O)c1cc2sccc2n1C | 6.08%
2 | O=c1c2[nH]c3ccccc3c2ncn1CCN1CCCCC1 | -45.6%
3 | CC(=O)Nc1ccc(N2C(=O)CSC2c2ccc([N+](=O)[O-])cc2)cc1 (stereo not drawn) | -11.3%
4 | CCN(CC(=O)Nc1c(F)cccc1F)C(=O)c1cn2ccccc2n1 | 29%
5 | N#C/C(=C/c1cn[nH]c1-c1cccc(Br)c1)C(=O)O | 1.8%
6 | CCOCCCNC(=O)C1c2ccccc2Oc2ccccc21 | 15.4%
7 | CC1CCCCC1NC(=O)Cn1cnc2ccccc2c1=O (stereo not drawn) | 3.88%
8 | O=C(Cc1ccc(Br)cc1)N1CCN(c2ccc(F)cc2)CC1 | -49.9%
9 | Cc1ccc(/C=N/NC(=S)Nc2cccc(S(=O)(=O)N(C)C)c2)o1 | -11.5%
10 | C=CCn1ccc(O)c(Cc2ccc(Cl)cc2)c1=O | -1.67%
11 | CC(O)(CS(=O)(=O)c1cccc(C(F)(F)F)c1)C(=O)Nc1ccc(C(F)(F)F)cc1 (stereo not drawn) | -13%
12 | Cc1noc(C)c1S(=O)(=O)N1CCCC(C(=O)NCC2CCCO2)C1 (stereo not drawn) | 5.12%
13 | COc1ccc2c(c1)SCCC2=O | 4.79%
14 | O=C(CNC(=O)c1cccs1)NCCN1CCN(Cc2ccccc2)CC1 | -37.3%
15 | O=C(O)C(O)(c1ccccc1)C(O)c1ccccc1 (stereo not drawn) | 9.72%
16 | c1ccc(C[C@H]2CNCCN2CCCCC2CCCCC2)cc1 | -19.7%
17 | Cc1nn(-c2ccccc2)c(C)c1/C=N/N1CCN(c2ccccc2)CC1 | -13.6%
18 | CN1CCN(C(=O)CSc2ccc(Cl)cc2)CC1 | 6.35%
19 | CCOc1ccc(NC(=O)CCNS(=O)(=O)c2ccc3c(c2)CCC(=O)N3)cc1 | -2.29%
20 | N#CC1=C(N)N(c2ccccc2Sc2ccccc2)C(=O)C1 | 3.4%
21 | COC(=O)C1=C(C)NC(=S)NC1c1ccco1 (stereo not drawn) | 15.9%
22 | Cc1ccc(S(=O)(=O)CCSc2cccc(C(=O)Nc3ccccc3C(=O)O)c2)cc1 | -30.3%
23 | CCOC(=O)/C=C/c1ccc2oc3ccccc3c(=O)c2c1 | 20.5%

Row | Structure (SMILES) | hERG current change (%, negative = inhibition) at 10uM
24 | O=C(CCCc1nc(-c2ccccc2)no1)NC1CCCCC1 | 8.31%
25 | Cc1ccc(Cn2c(=O)c3cccnc3n(CC(=O)Nc3cccc(C(F)(F)F)c3)c2=O)cc1 | 3.19%
26 | O=C(CCNS(=O)(=O)c1ccc(Br)cc1)NC1CCCCC1 | 4.82%
27 | CCN(C(=O)CN1C=NS(=O)(=O)c2ccccc21)c1ccccc1 | 4%
28 | CN(O)/C=C/C(=O)c1ccc(Br)cc1 | -12.9%
29 | O=C(CNS(=O)(=O)c1ccc(C(=O)N2CCCCC2)cc1)N1CCCCC1 | 17.8%
30 | NC(=O)c1ccccc1Br | -9.19%
31 | CCN(CC)c1ccc(N2C(=O)/C(=C/c3cccnc3)SC2=S)cc1 | 12.6%
32 | Cc1cccc(N/N=C(\C=N\N)C(=O)c2ccc(Br)cc2)c1 | 16.8%
33 | CCCOc1ccc2[nH]c(C(=O)N/N=C/c3cc(OC)c(OC)c(OC)c3)cc2c1 | 19%
34 | Cn1ccnc1SCC(=O)Nc1ccc(F)c([N+](=O)[O-])c1 | 12.6%
35 | COC(=O)C1=C(C)Nc2nc(SCc3ccccc3)[nH]c(=O)c2C1c1cccs1 (stereo not drawn) | 7.28%
36 | CCC(C)C(=O)Nc1nc2ccc(OC)cc2s1 (stereo not drawn) | -16.9%
37 | O=C(OCC(=O)N1CCCC1=O)C1CCN(S(=O)(=O)c2c(Cl)cccc2Cl)CC1 | -36.1%
38 | O=C(c1cnn(-c2ccc(Cl)cc2)c1)c1ccccc1O | -26.4%
39 | COc1ccccc1-n1nc(C(=O)NCc2ccco2)c2ccccc2c1=O | 0.396%
40 | Cc1cc[n+](CC(=O)Nc2cc(C(F)(F)F)ccc2Cl)cc1.[Cl-] | -2.23%
41 | CCN(Cc1ccccc1)S(=O)(=O)c1cc(C(=O)O)ccc1OC | 14.1%
42 | S=C(NCc1ccccc1)Nc1cccc2ccccc12 | -5.84%
43 | O=[N+]([O-])c1cc(-c2nc3nc4ccccc4nc3n2CCc2ccccc2)cc([N+](=O)[O-])c1 | 3.97%
44 | COC(=O)C1=C(c2cc3ccccc3s2)C[C@@H]2CC[C@H]1N2C(=O)NCCCOC(C)C | -15.4%
45 | O=Cc1c(NCc2ccco2)nc2ccccn2c1=O | -6.73%
46 | CC/C(=N/Nc1cccc(Cl)c1)c1cnnc(SC)n1 | 24%

Row | Structure (SMILES) | hERG current change (%, negative = inhibition) at 10uM
47 | CNS(=O)(=O)c1ccc(NCC2COc3ccccc3O2)c([N+](=O)[O-])c1 (stereo not drawn) | -26.8%
48 | CCC(CC)C(=O)c1c[nH]c(C(=O)NCCOC)c1 | 54.4%
49 | Cc1cc(C(=O)Cn2cncn2)c(C)n1CCc1ccc(F)cc1 | -19.8%
50 | O=C(OCC(=O)N1CCCC1)c1ccc(O)cc1 | 8.67%
51 | O=C(Nc1cccc(C(=O)N2CCOCC2)c1)c1cccnc1 | 16.8%
52 | CCc1c(C(=O)N/N=C/c2cccs2)nnn1-c1nonc1N | 18%
53 | CCOC(=O)Cc1csc(NC(=O)c2ccc(C)o2)n1 | 4.62%
54 | CCN1CCN(S(=O)(=O)c2ccc(Cl)c(C(=O)NC3CCC(C)CC3)c2)CC1 (stereo not drawn) | -2.34%
55 | CN(Cc1ccccc1)C(=O)c1cc(-c2ccc(Br)cc2)on1 | -0.817%
56 | CC(Sc1nnc(-c2ccc(O)cc2)o1)C(=O)Nc1cccc2ccccc12 (stereo not drawn) | -13.1%
57 | CCCn1c(SCC(=O)Nc2c(C)cccc2C)nnc1C(C)C | -1.47%
58 | CC(=O)Nc1cc2c(cc1NC(=O)Cn1nc(-c3ccccc3F)ccc1=O)OCCO2 | 2.13%
59 | CC(=O)Nc1cccc(-n2nnc(SCC(=O)Nc3ccc(F)c(Cl)c3)n2)c1 | 14.9%
60 | O=C1c2ccccc2OCOc2ccccc21 | -8.28%
61 | COc1ccccc1CNC(=O)CSC(=S)N1CCCC1 | -5.54%
62 | C=CCc1cccc2cc(C(=O)NCc3ccc(C(=O)OCC)o3)c(=O)oc12 | 1.21%
63 | O=C(NC1CC1)c1cc(=O)c2ccccc2o1 | -6.9%
64 | CCOc1cccc(NC(=O)c2ccc(S(=O)(=O)N(C)C)cc2)c1 | -3.89%
65 | Cc1cc(C)cc(NC(=O)CN2CCC(NC(=O)c3cccc(F)c3)CC2)c1 | -39%
66 | Nc1ncnc2nc(SCCC(=O)O)[nH]c12 | 5.77%
67 | CCCCn1c(N)c(N(CCOC)C(=O)c2cnccn2)c(=O)[nH]c1=O | 10.7%
68 | Nc1c(C(=O)Nc2ccc(S(=O)(=O)N3CCCC3)cc2)sc2nc3ccc(OC(F)(F)F)cc3cc12 | 3.56%
69 | COc1ccccc1NS(=O)(=O)c1ccc(O)c(C(=O)OCC(=O)N2CCc3ccccc32)c1 | -7.99%

Row | Structure (SMILES) | hERG current change (%, negative = inhibition) at 10uM
70 | Cc1cc(C(=O)COC(=O)C2=COCCO2)c(C)n1-c1ccc2c(c1)OCO2 | -11.2%
71 | COc1ccc(C(=O)NC(=S)NNC(=O)CNC(=O)C2CCCCC2)cc1 | 18.3%
72 | CCCc1c(C(=O)N/N=C/c2cccs2)nnn1-c1nonc1N | 5.75%
73 | COc1ccc(C2CC(c3ccc(F)cc3)n3nc(NS(C)(=O)=O)nc3N2)cc1 (stereo not drawn) | 8.06%
74 | Cl.O=C(NN1CCN(Cc2ccccc2)CC1)c1ccc(Cl)cc1 | -40.4%
75 | O=S(=O)(Nc1ccc(F)cc1)c1ccc(NS(=O)(=O)c2cccs2)cc1 | -0.231%
76 | Cc1onc(-c2c(Cl)cccc2Cl)c1C(=O)N1CCCCC1 | 12.8%
77 | CCC(O)CC(C(=O)NNc1ccccc1)C(=O)NNc1ccccc1 (stereo not drawn) | 8.98%
78 | O=C(CSc1nc(-c2ccco2)cc(C(F)(F)F)n1)N1CCCc2ccccc21 | 2.57%
79 | Cc1sc(NC(=O)CCC(=O)O)c(C#N)c1C | 20.1%
80 | CCc1ncc(C)[nH]1 | 7.87%
81 | COc1ccc(CC(=O)c2ccc(O)cc2O)cc1 | -3.19%
82 | CCOc1ccc(OCc2cccc(C(=O)N3CCCCCC3)c2)cc1 | -69.3%
83 | CC(=O)c1ccc(N2CCN(S(=O)(=O)c3ccc4c(c3)CC(C)N4C(=O)C3CC3)CC2)cc1 (stereo not drawn) | 24.1%
84 | O=C(N/N=C/c1ccc(-c2cccc([N+](=O)[O-])c2)o1)c1ccc([N+](=O)[O-])cc1 | -40%
85 | COC(=O)c1ccc(CN2CCC(CO)(Cc3cccc(OC)c3)CC2)cc1 | -66.1%
86 | CC(C)(C)OC(=O)N1CCC(C(=O)N[C@H](C(=O)O)c2ccccc2)(c2ccccc2)CC1 | 8.49%
87 | Cc1cc(C)n(C2CC(=O)N(c3cccc(Cl)c3)C2=O)n1 (stereo not drawn) | -1.18%
88 | COc1ccc(NC(=O)COC(=O)/C=C/c2ccc(OC)c(S(=O)(=O)N3CCOCC3)c2)cc1 | -25.8%
89 | COc1ccc(OC)c(NC(=O)c2csc(Cl)c2OC)c1 | 5.4%
90 | Cc1ccc(NC(=O)C2CCC(CNC(=O)[C@@H]3Cc4ccccc4CN3)CC2)cc1 (stereo partly drawn) | -25.8%
